We go through eleven molecules from patent US20240076343A1.

Bounds are passed on as bounds.

Assay in all cases: cell-based or functional assay
Assay [1] has as its target high-affinity hIL-2 receptor (IL-2Rαβγ) on NK-92 cells (human) (UniProt P01589).
In assay [2] the target is intermediate affinity hIL-2 receptor (hIL-2Rβγ) on TF1+IL-2Rβ cells (human) (UniProt P14784).
The target of assay [3] is intermediate affinity hIL-2 receptor complex (IL-2Rβγ) (human) (UniProt P14784).
Assay [4] addresses high-affinity hIL-2 receptor (IL-2Rαβγ) (human) (UniProt P01589).

B1: 1H3-hIgG1-L6-hIL-2 (R38A) (protein)
heavy: EVQLVESGGGLVQPGRSLKLSCAVSGFTFSDYAMAWVRQAPKKGLEWVATISYDGSRTYYRDSVKGRFTISRDNAKITLYLQMDSLRSEDTATYYCARHGSGYFDYWGQGVMVTVSS[not shown - about 450 residues with a human IgG1 Fc and changes]
light: DTVLTQSPALAVSPGERVTISCRASESVRTGVHWYQQKPGQQPKLLIYGASNLESGVPARFSGSGSGTDFTLTIDPVEADDTATYFCQQSWNDPFTFGSGTKLEIKRTVAAPSVFIFPPSDEQLKSGTASVVCLLNNFYPREAKVQWKVDNALQSGNSQESVTEQDSKDSTYSLSSTLTLSKADYEKHKVYACEVTHQGLSSPVTKSFNRGEC
On to B1, for which the Fold change from rhIL-2 (NK-92) in assay [1] is 0 fold. Besides, the Fold change from rhIL-2 (TF1 + IL-2Rβ) in assay [2] worked out at 1 fold. Besides, the Fold change from rhIL-2 (TF1 + IL-2Rβ), pSTAT5 titration in assay [3] stood at 0 fold. Besides, in assay [4], the Fold change from rhIL-2 (NK-92), pSTAT5 titration stood at 2 fold.

B2: 1H3-hIgG1-L6-hIL-2 (R38D) (protein)
heavy: EVQLVESGGGLVQPGRSLKLSCAVSGFTFSDYAMAWVRQAPKKGLEWVATISYDGSRTYYRDSVKGRFTISRDNAKITLYLQMDSLRSEDTATYYCARHGSGYFDYWGQGVMVTVSS[not shown - about 450 residues with a human IgG1 Fc and changes]
light: DTVLTQSPALAVSPGERVTISCRASESVRTGVHWYQQKPGQQPKLLIYGASNLESGVPARFSGSGSGTDFTLTIDPVEADDTATYFCQQSWNDPFTFGSGTKLEIKRTVAAPSVFIFPPSDEQLKSGTASVVCLLNNFYPREAKVQWKVDNALQSGNSQESVTEQDSKDSTYSLSSTLTLSKADYEKHKVYACEVTHQGLSSPVTKSFNRGEC
On to B2, for which, in assay [1], the Fold change from rhIL-2 (NK-92) stood at 3 fold. Moreover, in assay [2], the Fold change from rhIL-2 (TF1 + IL-2Rβ) was found to be 0 fold. The Fold change from rhIL-2 (TF1 + IL-2Rβ), pSTAT5 titration in assay [3] is 1 fold. Besides, in assay [4], the Fold change from rhIL-2 (NK-92), pSTAT5 titration was found to be 55 fold.

B3: 1H3-hIgG1-L6-hIL-2 (I92S) (protein)
heavy: EVQLVESGGGLVQPGRSLKLSCAVSGFTFSDYAMAWVRQAPKKGLEWVATISYDGSRTYYRDSVKGRFTISRDNAKITLYLQMDSLRSEDTATYYCARHGSGYFDYWGQGVMVTVSS[not shown - about 450 residues with a human IgG1 Fc and changes]
light: DTVLTQSPALAVSPGERVTISCRASESVRTGVHWYQQKPGQQPKLLIYGASNLESGVPARFSGSGSGTDFTLTIDPVEADDTATYFCQQSWNDPFTFGSGTKLEIKRTVAAPSVFIFPPSDEQLKSGTASVVCLLNNFYPREAKVQWKVDNALQSGNSQESVTEQDSKDSTYSLSSTLTLSKADYEKHKVYACEVTHQGLSSPVTKSFNRGEC
Molecule B3 displayed a Fold change from hIL-2 (NK-92) in assay [1] of 1 fold. For the same molecule, the Fold change from rhIL-2 (TF1 + IL-2Rβ) in assay [2] amounted to 10 fold. Further, the Fold change from rhIL-2 (TF1 + IL-2Rβ), pSTAT5 titration in assay [3] was 8 fold.

B4: 1H3-hIgG1-L6-hIL-2 (N88E) (protein)
heavy: EVQLVESGGGLVQPGRSLKLSCAVSGFTFSDYAMAWVRQAPKKGLEWVATISYDGSRTYYRDSVKGRFTISRDNAKITLYLQMDSLRSEDTATYYCARHGSGYFDYWGQGVMVTVSS[not shown - about 450 residues with a human IgG1 Fc and changes]
light: DTVLTQSPALAVSPGERVTISCRASESVRTGVHWYQQKPGQQPKLLIYGASNLESGVPARFSGSGSGTDFTLTIDPVEADDTATYFCQQSWNDPFTFGSGTKLEIKRTVAAPSVFIFPPSDEQLKSGTASVVCLLNNFYPREAKVQWKVDNALQSGNSQESVTEQDSKDSTYSLSSTLTLSKADYEKHKVYACEVTHQGLSSPVTKSFNRGEC
Turning to B4, the Fold change from hIL-2 (NK-92) in assay [1] stood at 10 fold. In addition, in assay [2], the Agonistic Activity (TF1 + IL-2Rβ) amounted to 50% and the Fold change from rhIL-2 (TF1 + IL-2Rβ) is 1160 fold. The Fold change from rhIL-2 (TF1 + IL-2Rβ), pSTAT5 titration in assay [3] was over 10000 fold.

B5: 1H3-hIgG1-L6-hIL-2 (R38D/E61R/K43E) (protein)
heavy: EVQLVESGGGLVQPGRSLKLSCAVSGFTFSDYAMAWVRQAPKKGLEWVATISYDGSRTYYRDSVKGRFTISRDNAKITLYLQMDSLRSEDTATYYCARHGSGYFDYWGQGVMVTVSS[not shown - human IgG1 constant region]SGGGGSAPTSSSTKKTQLQLEHLLLDLQMILNGINNYKNPKLTDMLTFEFYMPKKATELKHLQCLERELKPLEEVLNLAQSKNFHLRPRDLISNINVIVLELKGSETTFMCEYADETATIVEFLNRWITFCQSIISTLT
light: DTVLTQSPALAVSPGERVTISCRASESVRTGVHWYQQKPGQQPKLLIYGASNLESGVPARFSGSGSGTDFTLTIDPVEADDTATYFCQQSWNDPFTFGSGTKLEIKRTVAAPSVFIFPPSDEQLKSGTASVVCLLNNFYPREAKVQWKVDNALQSGNSQESVTEQDSKDSTYSLSSTLTLSKADYEKHKVYACEVTHQGLSSPVTKSFNRGEC
In turn, B5 displayed a Fold change from rhIL-2 (NK-92) in assay [1] of 27 fold. Besides, the Fold change from rhIL-2 (TF1 + IL-2Rβ) in assay [2] was determined as 1 fold. In assay [4], this molecule gave a Fold change from rhIL-2 (NK-92), pSTAT5 titration of 598 fold.

B6: 1H3-hIgG1-L6-hIL-2 (I92Y) (protein)
heavy: EVQLVESGGGLVQPGRSLKLSCAVSGFTFSDYAMAWVRQAPKKGLEWVATISYDGSRTYYRDSVKGRFTISRDNAKITLYLQMDSLRSEDTATYYCARHGSGYFDYWGQGVMVTVSS[not shown - about 450 residues with a human IgG1 Fc and changes]
light: DTVLTQSPALAVSPGERVTISCRASESVRTGVHWYQQKPGQQPKLLIYGASNLESGVPARFSGSGSGTDFTLTIDPVEADDTATYFCQQSWNDPFTFGSGTKLEIKRTVAAPSVFIFPPSDEQLKSGTASVVCLLNNFYPREAKVQWKVDNALQSGNSQESVTEQDSKDSTYSLSSTLTLSKADYEKHKVYACEVTHQGLSSPVTKSFNRGEC
B6 showed a Fold change from hIL-2 (NK-92) in assay [1] of 1 fold. Besides, in assay [2], the Fold change from rhIL-2 (TF1 + IL-2Rβ) was 1 fold. In assay [3], the Fold change from rhIL-2 (TF1 + IL-2Rβ), pSTAT5 titration amounted to 1 fold.

B7: 1H3-hIgG1-L6-hIL-2 (N88I) (protein)
heavy: EVQLVESGGGLVQPGRSLKLSCAVSGFTFSDYAMAWVRQAPKKGLEWVATISYDGSRTYYRDSVKGRFTISRDNAKITLYLQMDSLRSEDTATYYCARHGSGYFDYWGQGVMVTVSS[not shown - about 450 residues with a human IgG1 Fc and changes]
light: DTVLTQSPALAVSPGERVTISCRASESVRTGVHWYQQKPGQQPKLLIYGASNLESGVPARFSGSGSGTDFTLTIDPVEADDTATYFCQQSWNDPFTFGSGTKLEIKRTVAAPSVFIFPPSDEQLKSGTASVVCLLNNFYPREAKVQWKVDNALQSGNSQESVTEQDSKDSTYSLSSTLTLSKADYEKHKVYACEVTHQGLSSPVTKSFNRGEC
As for B7, in assay [1], the Fold change from hIL-2 (NK-92) was 9 fold. Also, the Fold change from rhIL-2 (TF1 + IL-2Rβ) in assay [2] was over 10000 fold. The Fold change from rhIL-2 (TF1 + IL-2Rβ), pSTAT5 titration in assay [3] is over 10000 fold.

B8: 1H3-hIgG1-L6-hIL-2 (R38D/E61R) (protein)
heavy: EVQLVESGGGLVQPGRSLKLSCAVSGFTFSDYAMAWVRQAPKKGLEWVATISYDGSRTYYRDSVKGRFTISRDNAKITLYLQMDSLRSEDTATYYCARHGSGYFDYWGQGVMVTVSS[not shown - about 450 residues with a human IgG1 Fc and changes]
light: DTVLTQSPALAVSPGERVTISCRASESVRTGVHWYQQKPGQQPKLLIYGASNLESGVPARFSGSGSGTDFTLTIDPVEADDTATYFCQQSWNDPFTFGSGTKLEIKRTVAAPSVFIFPPSDEQLKSGTASVVCLLNNFYPREAKVQWKVDNALQSGNSQESVTEQDSKDSTYSLSSTLTLSKADYEKHKVYACEVTHQGLSSPVTKSFNRGEC
B8: the Fold change from rhIL-2 (NK-92) in assay [1] was found to be 36 fold. The Fold change from rhIL-2 (TF1 + IL-2Rβ) in assay [2] was determined as 2 fold. Moreover, in assay [4], the Agonistic Activity (NK-92), pSTAT5 titration was 80% and the Fold change from rhIL-2 (NK-92), pSTAT5 titration is 479 fold.

B9: 1H3-hIgG1-L6-hIL-2 (D20Y) (protein)
heavy: EVQLVESGGGLVQPGRSLKLSCAVSGFTFSDYAMAWVRQAPKKGLEWVATISYDGSRTYYRDSVKGRFTISRDNAKITLYLQMDSLRSEDTATYYCARHGSGYFDYWGQGVMVTVSS[not shown - about 450 residues with a human IgG1 Fc and changes]
light: DTVLTQSPALAVSPGERVTISCRASESVRTGVHWYQQKPGQQPKLLIYGASNLESGVPARFSGSGSGTDFTLTIDPVEADDTATYFCQQSWNDPFTFGSGTKLEIKRTVAAPSVFIFPPSDEQLKSGTASVVCLLNNFYPREAKVQWKVDNALQSGNSQESVTEQDSKDSTYSLSSTLTLSKADYEKHKVYACEVTHQGLSSPVTKSFNRGEC
In the case of B9, in assay [1], the Fold change from hIL-2 (NK-92) worked out at 17 fold. Besides, the Fold change from rhIL-2 (TF1 + IL-2Rβ) in assay [2] amounted to 383 fold. This molecule also gave a Fold change from rhIL-2 (NK-92), pSTAT5 titration in assay [4] of over 10000 fold.

B10: 1H3-hIgG1-L6-hIL-2 (F42R) (protein)
heavy: EVQLVESGGGLVQPGRSLKLSCAVSGFTFSDYAMAWVRQAPKKGLEWVATISYDGSRTYYRDSVKGRFTISRDNAKITLYLQMDSLRSEDTATYYCARHGSGYFDYWGQGVMVTVSS[not shown - about 450 residues with a human IgG1 Fc and changes]
light: DTVLTQSPALAVSPGERVTISCRASESVRTGVHWYQQKPGQQPKLLIYGASNLESGVPARFSGSGSGTDFTLTIDPVEADDTATYFCQQSWNDPFTFGSGTKLEIKRTVAAPSVFIFPPSDEQLKSGTASVVCLLNNFYPREAKVQWKVDNALQSGNSQESVTEQDSKDSTYSLSSTLTLSKADYEKHKVYACEVTHQGLSSPVTKSFNRGEC
B10 yielded a Fold change from rhIL-2 (NK-92) in assay [1] of 6 fold. Moreover, the Fold change from rhIL-2 (TF1 + IL-2Rβ) in assay [2] was 0 fold. Further, the Fold change from rhIL-2 (TF1 + IL-2Rβ), pSTAT5 titration in assay [3] was 0 fold. In assay [4], this molecule gave a Fold change from rhIL-2 (NK-92), pSTAT5 titration of 65 fold.

B11: 1H3-hIgG1-L6-hIL-2 (N88F) (protein)
heavy: EVQLVESGGGLVQPGRSLKLSCAVSGFTFSDYAMAWVRQAPKKGLEWVATISYDGSRTYYRDSVKGRFTISRDNAKITLYLQMDSLRSEDTATYYCARHGSGYFDYWGQGVMVTVSS[not shown - about 450 residues with a human IgG1 Fc and changes]
light: DTVLTQSPALAVSPGERVTISCRASESVRTGVHWYQQKPGQQPKLLIYGASNLESGVPARFSGSGSGTDFTLTIDPVEADDTATYFCQQSWNDPFTFGSGTKLEIKRTVAAPSVFIFPPSDEQLKSGTASVVCLLNNFYPREAKVQWKVDNALQSGNSQESVTEQDSKDSTYSLSSTLTLSKADYEKHKVYACEVTHQGLSSPVTKSFNRGEC
Regarding B11, in assay [1], the Fold change from hIL-2 (NK-92) came out at 19 fold. Also, in assay [2], the Fold change from rhIL-2 (TF1 + IL-2Rβ) was over 10000 fold. Further, the Fold change from rhIL-2 (TF1 + IL-2Rβ), pSTAT5 titration in assay [3] is over 10000 fold.
